# Read counts are not given, so values of variants with three or more changes are uncertain.
# B1: LINE1-mini (parent)
# chain: GGCAGAGCUCAACACAGCGUGGCAAAGUGGCUGUGGCUAGACUGCC
# Variants of: B1
# Assay: self-cleavage, relative activity (ratio to wild type); higher = more cleavage; in vitro, sequencing; the parent is a self-cleaving ribozyme
row,Variant,self-cleavage
1,C15A C31G C46U,0.02
2,A14C C18A G27A C46U,0.01
3,A14U G17U G19C,0.22
4,C15G C23U C37G A41G U43A,0
5,A14U G29A G35A C37U,0.03
6,A14C A26C U32A C37A U38C A39C,0.05
7,A14U G17C U38G A39C,0.06
8,A14G G21A G35U U43A,0
9,A14C C18U G30U,0.01
10,A14C G29A G40U,0.21
11,A14C C18A G19U,0.03
12,C15G A25C C31A C42G,0
13,A14C G17C C31G C46A,0
14,A14G U20G G21U G35A,0.02
15,A14C U34C A41G C42G,0.01
16,A14U U20C A25C C37A,0.03
17,A14U C18A G19A,0.04
18,C15G G17A A39C,0.02
19,A14U U20C C31G C42U,0.07
20,A14U G21A A39C,0.17
21,C15A A16U C23G G27A C45G,0.04
22,C15G G17A G19U G29A C31U,0
23,A14U U38G C42U,0.03
24,A14G G30C C42A U43C,0.03

row,Variant,self-cleavage
1,A14G G36U U38G G40A C42A G44A,0.02
2,A14U U38G G40C,0.02
3,A14G A41G U43A G44U,0.02
4,A14C G30U C37A C45G,0.24
5,A14U G19C A39G,0.06
6,A14C A24C G40C,0.01
7,C15A A26G U38C,0.04
8,A14C G35C A41G C42A,0.01
9,A14G C23U G29C,0.35
10,A14U A41G C42U C46U,0.45
11,A14U G35A C37U,0.01
12,A14G G29A U38G,0.02
13,A14G G17U G19A A41U,0.01
14,A14G C18A G35C,0.01
15,A14G G27U G30A U38A A41G,0
16,A14C G17A U20A A24G G36A C37U,0.08
17,A14G C23A U43C,0.14
18,C15G G19A G27U U38G,0.02
19,A14G U32C G36U G40U,0.11
20,A14U C15A G21U G33C,0.01
21,C15G A16U G21U C23G G44A,0.02
22,C15G A16U G44U,0.1
23,A14U U20C C37U,0.02
24,A14U G27A G35A C37A,0.09

row,Variant,self-cleavage
1,A14U G17A G27A,0.07
2,C15G G17A G21U C31A U34A,0.04
3,A14C C18A C45U,0.03
4,A14U G35A U38A G40A,0.01
5,C15A C23A G27C G30C,0.08
6,A14U A26U G40A,0.01
7,C15A U32A U38C,0.06
8,C15A G29U U32C,0.07
9,C15A G21C C37G C46U,0.03
10,A14G U20C G30A,0.35
11,C15A A16G G22U,0.04
12,C15A G17A C23G G44A,0.03
13,A14G G19A A25U G27C,0.62
14,A14G C37U G40A,0.04
15,A14G A24C G44A,0.08
16,A14U C42G U43C,0.01
17,C15A G29C G36C,0.12
18,C15G C31G A39U,0.01
19,A14G G29U U38A,0.51
20,C15A G17A C42G,0.05
21,A14G G27C U28G,0.5
22,A14G G21C G36C A39U,0.05
23,A14G C23U U28A G35A A41C C46A,0.01
24,C15A G21C G35A,0.05

row,Variant,self-cleavage
1,A14G A26U G33U,0.01
2,A14G G22C A24C G33U U34C,0.03
3,A14G G17C G30A G36U G40U,0.14
4,A14G C15U C31A,0.01
5,A14G A16G G19U A24U A39G,0.01
6,C15A C18U G29C C37A G40C C42A G44A,0.03
7,A14G C15U G19C A26G A41U,0.05
8,A14G G17A G22A G30C U34C U38A C42G C45A,0.02
9,A14U C23A A26U U28A,0.49
10,C15G G19U A26G U34G G44C,0
11,A14U G19C G33C,0.05
12,A14C U38C C45G,0.26
13,A14U G21C C23U G44A,0.03
14,A14C G40A C42A,0.1
15,A14C C15A U28A C46A,0.05
16,A14U G21U C37A G40C,0.04
17,A14G G30U G40C,0.06
18,A14G G21U G36U C46U,0.07
19,A14G G19C U43A,0.07
20,A14G G21A C23G U32A,0.02
21,C15A C18U G19C,0.13
22,A14U A25G U32G U43A,0.09
23,A14G G17U U20G G29C A41U U43C,0.01
24,A14U A25G C31A U32C C45A,0.04

row,Variant,self-cleavage
1,A14G C31U U34C A39U G44A,0.21
2,C15A G19C U32C,0.03
3,A14U C15A A25G,0
4,C15G C23G C37A,0.03
5,A14C U20A G27U C37A U38A,0.01
6,A14U C18A G33C U34G C46G,0.08
7,C15G A16U G19A,0.06
8,C15A U20G G30C G36U G40U A41G,0.02
9,A14G A25C G44U,0.03
10,C15A U28A G33A G35C,0.03
11,C15G A26U U43A,0
12,A14C G27U A41G,0.07
13,C15A C31U C46A,0.02
14,C15A C23A A41U,0.35
15,C15G G19C A24U G33U G40C U43G C46U,0
16,A14U C18A A25U G33A A39G,0.04
17,C15A A39C G44A,0.04
18,C15A C31A G40U,0
19,A14G C15A A16U C18A G30A U34A,0.14
20,A14U G30U G33A G36C,0.1
21,C15A A24U U34G,0.01
22,A14G G19A U32A,0.02
23,A14C U43A G44U C45U,0.07
24,C15A G19C G22A G33C,0.16

row,Variant,self-cleavage
1,C15G G17C G44C C45G,0.03
2,A14C C18A C42A,0.06
3,A14C U32G A41C U43G,0.1
4,C15A G17A G21A G27A,0.07
5,C15A U28A C31A,0.04
6,A14G C23A U28G U38G,0.01
7,C15A G27U C46A,0.1
8,C15G A16U C42U,0.04
9,C15A G17A G27U U43A,0.05
10,C15A C18U U34C A39C,0.04
11,C15A G22A G30C G33C U43A,0.08
12,C15A A24U C42G C45U,0.08
13,C15G G17A U28G,0.14
14,A14G U32A U34C,0.02
15,A14G A16C G27U C45A,0.02
16,C15G A26C G33U,0.42
17,C15G G17U A39G C42A,0.02
18,A14U G21C C23A G27A G29U G40U C45G C46A,0
19,A14C C15A G40U,0.02
20,A14G A39G C42U,0.21
21,C15G G17U C31G,0.03
22,C15G A25U C37G C45U,0.01
23,C15A G40A C42A G44C,0.03
24,A14U A16G U20A,0.05

row,Variant,self-cleavage
1,A14C A26U A39G,0.04
2,A14U U20A G29U G33U,0.17
3,A14C G30U U43C,0.03
4,A14C C37U C42U G44C C45A,0.06
5,A14U U34G U38A,0.42
6,A14U C18A U20G C23U C37U,0.05
7,C15A U20G G44U,0.07
8,A14U C23G G27C U34A A41G,0.1
9,A14C G35C C37A C45A C46A,0.01
10,C15G A16G G19C C42A,0.03
11,A14C G19A C45A,0.02
12,A14G C18A A25C,0.11
13,C15G C18A C37A,0.06
14,C15G G17U C37U,0.06
15,A14C U20A A26U G30C,0.19
16,C15A C23U C42A,0.04
17,C15A A26C U28C C42U,0.01
18,A14C C18A U43A,0.01
19,A14U G27U G29C A39G C45G,0.03
20,C15A G21U G22A U38C,0.02
21,A14U C31U U38G,0.02
22,A14G A24C A25C,0.04
23,C15A G36A C45U,0.05

# Reference: the RNAGym collection of RNA variant scans (doi:10.7554/elife.90254)
